Experimental data as given in the supplement of paper PMC12217912.
The list shows a part of the results. Sequences were assembled here from the parent chain. Inactive controls read about 0.05.

B1: TEV protease; numbered along this chain (parent)
chain: MGESLFKGPRDYNPISSSICHLTNESDGHTTSLYGIGFGPFIITNKHLFRRNNGTLVVQSLHGVFKVKDTTTLQQHLVDGRDMIIIRMPKDFPPFPQKLKFREPQREERICLVTTNFQTKSMSSMVSDTSCTFPSGDGIFWKHWIQTKDGQCGSPLVSTRDGFIVGIHSASNFTNTNNYFTSVPKNFMELLTNQEAQQWVSGWRLNADSVLWGGHKVFMVKPEEPFQPVKEATQL

Variants of: B1
Assay: raw area under fraction-flipped curve 0-4 h after induction (AUC4h, not background-subtracted), DNA-recorder readout of cleavage of the substrate (dimensionless); higher = more cleavage of the substrate by the protease variant
Conditions: temperature: 34 °C; time window: 0-4 h after rhamnose induction
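Further: Bxb1 expression induced with 0.2% (w/v) L-rhamnose at OD600 near 0.5, cultures sampled hourly, flipped fraction per protease–substrate barcode pair counted by paired-end Illumina sequencing.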

| Variant | area with substrate ENLYFQA | area with substrate ENLYFQC | area with substrate ENLYFQG | area with substrate ENLYFQH | area with substrate ENLYFQI | area with substrate ENLYFQK | area with substrate ENLYFQL | area with substrate ENLYFQM | area with substrate ENLYFQN | area with substrate ENLYFQR | area with substrate ENLYFQS | area with substrate ENLYFQT | area with substrate ENLYFQW | area with substrate ENLYFQY | area with substrate ENLYFQP | area with substrate ENLYFQD | area with substrate ENLYFQQ | area with substrate ENLYFQV | area with substrate ENLYFQF | area with substrate ENLYFQE |
| --- | --- | --- | --- | --- | --- | --- | --- | --- | --- | --- | --- | --- | --- | --- | --- | --- | --- | --- | --- | --- |
| N175M | 0.0925 | 0.136 | 0.0768 | 0.0816 | 0.0659 | 0.0585 | 0.0626 | 0.0455 | 0.0737 | 0.0646 | 0.0811 | 0.0559 | 0.0662 | 0.0555 |  |  |  |  |  |  |
| W203E | 0.0623 | 0.0571 |  |  |  | 0.0611 |  |  | 0.0646 | 0.0568 | 0.0662 | 0.0613 | 0.0857 | 0.0486 | 0.0513 |  |  |  |  |  |
| S60Q |  | 0.103 |  | 0.0751 | 0.0581 | 0.0751 | 0.0649 | 0.104 | 0.0682 | 0.0726 | 0.0877 |  | 0.0629 |  |  | 0.0699 |  |  |  |  |
| L205E |  | 0.0746 |  |  | 0.0631 |  |  | 0.0621 | 0.0662 | 0.104 | 0.0835 | 0.0643 | 0.0471 |  |  |  |  |  |  |  |
| C111I | 0.0964 |  | 0.109 | 0.0722 | 0.0434 | 0.054 | 0.0656 | 0.0567 | 0.0723 | 0.0628 | 0.1 | 0.0652 |  |  |  | 0.0362 |  |  |  |  |
| Q105G | 0.0959 | 0.0707 | 0.0668 | 0.059 | 0.0629 | 0.0696 | 0.0572 | 0.0758 | 0.0673 | 0.0623 | 0.0903 | 0.0622 | 0.0492 | 0.0711 | 0.0579 |  | 0.0862 | 0.0479 |  |  |
| T30G | 0.0811 | 0.109 | 0.15 |  | 0.0336 | 0.0871 | 0.0561 | 0.0882 | 0.0573 | 0.0528 | 0.0993 | 0.0623 | 0.0594 | 0.064 |  |  |  | 0.0495 | 0.0628 |  |
| S124D |  | 0.112 | 0.106 | 0.0768 | 0.0646 |  | 0.0683 | 0.108 | 0.0728 | 0.0535 | 0.0989 | 0.0678 | 0.0462 | 0.0717 | 0.0661 | 0.0792 |  |  | 0.0829 |  |
| S124M |  | 0.0983 | 0.0904 |  | 0.0538 | 0.0681 | 0.0617 | 0.127 |  | 0.0591 | 0.105 | 0.0804 | 0.0646 |  |  | 0.0742 | 0.0754 |  |  |  |
| T70A | 0.0855 |  |  | 0.0646 |  |  | 0.0499 | 0.0628 | 0.0642 | 0.0535 | 0.0836 | 0.0654 | 0.0614 |  |  |  |  | 0.0687 |  |  |
| G8V |  | 0.125 |  |  |  |  | 0.054 |  |  |  | 0.103 | 0.0612 |  |  |  |  |  |  |  |  |
| V113T | 0.0827 | 0.0966 | 0.0731 | 0.0753 | 0.0478 | 0.0535 | 0.048 | 0.0658 | 0.0655 |  | 0.0774 | 0.0631 | 0.0302 |  |  | 0.0493 | 0.053 | 0.0579 | 0.0728 |  |
| K46Y | 0.073 | 0.0837 | 0.159 | 0.0538 | 0.0418 | 0.0482 | 0.0553 | 0.0382 | 0.0552 | 0.059 | 0.0621 |  | 0.0599 |  |  | 0.063 | 0.0448 | 0.0541 | 0.0474 | 0.0774 |
| S17V | 0.0876 | 0.104 | 0.102 | 0.0821 | 0.078 | 0.0414 | 0.0683 | 0.09 | 0.0668 |  | 0.0969 | 0.0802 | 0.07 | 0.0679 | 0.0558 | 0.0748 | 0.0907 | 0.072 | 0.0829 | 0.0629 |
